In publication PMC12040169 (PLOS Biology, 2025):
This is one part of the list.

tested on: T1, C. trachomatis L2/434/Bu expressing GFP (CTL2-GFP); design: species or system HeLa; C. trachomatis total inclusion area by high-content imaging, normalised to DMSO; details: total inclusion area; 28.5 h, 10 µM; inhibitor
T1 construct: L2/434/Bu GFP intracellular growth in HeLa cells
Summary of the method: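 Imaging read-out: GFP inclusions and Hoechst nuclei captured by high-content imaging after fixation. Inclusion area/number = chlamydial growth; nuclei count = host cell viability. MIC calculated per earlier method.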

| SMILES | % of control remaining |
| --- | --- |
| CN(C)Cc1ccc(C(=O)NCC(C)(C)N2CCCCC2)cc1 [CBK281865] | 90.077 |
| Cn1cc(CCC(=O)NC(Cc2ccncc2)[C@H]2C[C@H](O)C2)cn1 (stereo partly shown) [CBK307292] | 95.0618 |
| O=C(CN(c1ccccc1)S(=O)(=O)c1ccccc1[N+](=O)[O-])NC1CCCCC1 [CBK262328] | 97.1005 |
| NC(=O)CCN1CCCC2(CCN(C(=O)c3ccoc3)C2)C1 (stereo not shown) [CBK132816] | 92.3157 |
| NS(=O)(=O)c1ccc(Nc2nc(-c3ccccc3)c(CC(=O)O)s2)cc1 [CBK131899] | 86.6933 |
| COc1ccc(N2C(=O)CC(NCCNc3ccc([N+](=O)[O-])cn3)C2=O)cc1 (stereo not shown) [CBK263593] | 101.317 |
| Cc1cnn(C2CCCN(C(=O)CC3C(=O)Nc4ccccc43)C2)c1 (stereo not shown) [CBK304930] | 40.057 |
| O=C(NC/C=C/c1cn(C2CC(O)C(CO)O2)c(=O)[nH]c1=O)C(F)(F)F (stereo not shown) [CBK201249] | 105.57 |
| O=C(NNC(=O)c1ccccc1C(=O)O)c1cccc(Cl)c1 [CBK261658] | 119.218 |
| CCN1CCN(c2ccc(NC(=O)c3ccc([N+](=O)[O-])c(C)c3)cc2)CC1 [CBK266503] | 139.013 |
| CCn1cc(C(C)NC(=S)Nc2ccc(OC)cc2OC)c(C)n1 (stereo not shown) [CBK266950] | 102.588 |
| CN1CCN(C(=O)CCn2c(C(F)F)cc3cccnc32)CC1 [CBK285023] | 108.146 |
| COC(=O)c1ccc(-c2ccc(Cl)c(Cl)c2)nc1 [CBK149231] | 118.373 |
| COc1ncc(-c2cc(N3CCN(c4ccccn4)CC3)ncn2)c(OC)n1 [CBK037707] | 141.544 |
| O=C(CC1C(=O)N(c2cccc(Cl)c2)C(=O)N1CCc1cccs1)Nc1ccccc1 (stereo not shown) [CBK267499] | 93.3533 |
| Cc1cc(NS(=O)(=O)c2ccc3oc(=O)ccc3c2)n(C)n1 [CBK067250] | 108.361 |
| O=c1[nH]c(=O)c2cc(S(=O)(=O)NCCN3CCc4ccccc43)ccc2[nH]1 [CBK286360] | 139.594 |
| Oc1cccc2ccc(/C=C/c3ccc(-c4ccccc4Cl)o3)nc12 [CBK264445] | 115.221 |
| CC1CCC(NC(=O)CN2C3CCC2CC(O)(c2ccco2)C3)CC1 (stereo not shown) [CBK284036] | 94.6647 |
| O=c1c2cnn(-c3ccccc3)c2nc(Cc2ccccc2)n1-c1cccc2ccccc12 [CBK262316] | 134.845 |
| CCOC(=O)N1CCN(S(=O)(=O)c2ccc3oc(=O)ccc3c2)CC1 [CBK305870] | 62.4324 |
| NC(=O)CN1CC2(CCN(Cc3ccc(Cl)c(Cl)c3)CC2)c2ccccc21 [CBK126775] | 74.5825 |
| Cc1cc(C)c2[nH]c(C(=O)NCc3c(C)n[nH]c3C)c(C)c2c1 [CBK283254] | 92.65 |
| Cc1cccc(N2CCN(CCCC(c3ccc(F)cc3)c3ccc(F)cc3)CC2)n1 [CBK025113C] | 84.1647 |
| CCN(CC)Cn1nc(Nc2ccccc2)n(-c2ccccc2)c1=S [CBK261672] | 111.189 |
| O=C(O)c1cc2oc3ccccc3c3ccccc3oc2cc1C(=O)Nc1cccc([N+](=O)[O-])c1 [CBK265500] | 102.416 |
| O=S1(=O)CCC(SCc2ccccc2)C1 (stereo not shown) [CBK019237] | 113.36 |

| SMILES | % of control remaining |
| --- | --- |
| CC(=O)c1c(C)nn2c3ccccc3n(CCN3CCOCC3)c12 [CBK262709C] | 99.1266 |
| O=C(CSc1ccccc1[N+](=O)[O-])Oc1ccccc1 [CBK265501] | 92.9205 |
| CCn1c(C2CCN(C(=O)CCCn3cncn3)CC2)nn(C)c1=O [CBK307326] | 52.2244 |
| Cc1ccccc1OCC(=O)N1CC(=O)Nc2ccccc21 [CBK300535] | 67.4735 |
| Clc1ccc(COc2cc(N3CCCN(CC4CC4)CC3)ncn2)cc1Cl [CBK084070] | 99.3204 |
| CCOc1ccc(S(=O)(=O)N(CC)CC(=O)O)cc1C [CBK269770] | 74.1291 |
| CCc1nnc(NS(=O)(=O)c2ccc(NC(=S)NC(=O)c3ccco3)cc2)s1 [CBK018917] | 32.997 |
| O=C(O)CCc1ccc(-c2cc(N3CCN(c4ccccn4)CC3)ncn2)cc1 [CBK037821] | 81.5849 |
| CC(=O)c1ccc(N(C)C)cc1 [CBK033830] | 55.7241 |
| CNC(=O)c1cccc(NC(=O)c2cc(Br)cnc2NCC2CC2)c1 [CBK076380] | 70.4596 |
| COc1cc(C2NC(C(=O)O)Cc3c2[nH]c2ccccc32)cc(OC)c1OC (stereo not shown) [CBK219193] | 90.2573 |
| CC(=O)N1CCc2c(nc(N(C)C)nc2NCCCOC(C)C)C1 [CBK306745] | 97.9014 |
| Cn1c(CN2CCN(C3CCCC3)C(=O)C2)nc2ccccc21 [CBK281577] | 86.0729 |
| Cc1ccc(C2C3=C(CC(C)(C)CC3=O)Nc3[nH][nH]c(=O)c32)o1 (stereo not shown) [CBK288147] | 108.639 |
| Cc1ccc(C(=O)N(C)C2CCCCC2)cc1C [CBK083667] | 111.353 |
| Cc1ccnc(Sc2nc3c(c(=O)[nH]c(=O)n3C)n2CCCc2ccccc2)n1 [CBK269353] | 91.7489 |
| O=C(NCC1CCCO1)c1cc(S(=O)(=O)N2CCOCC2)c(Cl)cc1Cl (stereo not shown) [CBK269691] | 61.8037 |
| COc1cccc(C2(O)CCCC3CN(C(C)=O)CC32)c1 (stereo not shown) [CBK283242] | 108.346 |
| COc1cc(OC)cc(C(=O)Nc2cc(C)c3c(=O)oc4ccccc4c3n2)c1 [CBK291221] | 85.2953 |
| CCCc1cc(C(N)=O)cc(CCC)c1OCC [CBK015537] | 85.2729 |
| CC1CCCN(Cc2ccccc2[N+](=O)[O-])C1 (stereo not shown) [CBK261862] | 78.7564 |
| O=C(NC(Cc1ccsc1)c1nccs1)C1CC2C=CC1O2 (stereo not shown) [CBK285096] | 91.1527 |
| O=C1CC[C@@H](NCc2ccoc2)[C@H](c2cc(F)cc(F)c2)N1 [CBK282912] | 82.1354 |
| Cc1ccc(C)c2nc3c(cc12)CN(C1CC1)C(=O)CO3 [CBK282858] | 109.214 |
| CC(C)/N=C1/N[C@@H]2CS(=O)(=O)C[C@H]2O1 [CBK019692G] | 87.21 |
| CN(C)c1ccc(/C=C2/C(=N)N3N=C(c4ccccc4Cl)SC3=NC2=O)cc1 [CBK097554] | 90.0788 |
| CCn1nc(C(C)C)cc1C(=O)NCCN1CCC(C)CC1 [CBK282107] | 82.915 |

| SMILES | % of control remaining |
| --- | --- |
| O=C1N[C@@H]2CCN(C(=O)Cc3ccc(O)cc3)C[C@@H]2C/C=C/CCOc2ccccc21 [CBK292043] | 85.3444 |
| CS(=O)(=O)N(CC(=O)Nc1ccccc1C(F)(F)F)Cc1ccc(Cl)cc1 [CBK267854] | 122.138 |
| CCCC12CN3CC(C)(CN(C1)C31C(=O)Nc3ccc(C)cc31)C2=O (stereo not shown) [CBK268491] | 109.229 |
| O=C(Nc1cc2ccccc2c(Br)n1)N[C@@H]1C[C@H]1c1ccccc1 [CBK063276] | 95.9595 |
| Cc1ncc(CN2CCCC(Cc3nc4ccccc4[nH]3)C2)s1 (stereo not shown) [CBK281902] | 112.264 |
| Cc1ccccc1C1(O)CCN(CC(O)c2ccccc2)CC1 (stereo not shown) [CBK282491] | 74.3605 |
| O=C(O)COc1ccc2c(=O)c(Oc3ccc(Cl)cc3)c(C(F)(F)F)oc2c1 [CBK296087] | 133.676 |
| O=c1cc(CN2CCC[C@@H]2CN2CCCC2)[nH]c(=O)[nH]1 [CBK149108] | 74.9798 |
| CC(=O)N1CCCc2cc(C(O)CN3CCN(c4cccc(C)c4)CC3)ccc21 (stereo not shown) [CBK286457] | 89.1353 |
| CCc1nc2ccc(C(=O)NCCNC(C)=O)cn2c1N(C)Cc1ccc(NC(C)=O)cc1 [CBK145612] | 93.3256 |
| O=C(NCC(c1ccccc1)c1ccccc1)N1CCN(c2ccccc2)CC1 [CBK155197] | 73.6974 |
| Cc1cc(C)n(C(C)C(=O)N(C)CCn2ccnc2C)n1 (stereo not shown) [CBK281759] | 110.625 |
| CCN(CC)C(=O)c1ccsc1NS(=O)(=O)c1cc(Br)ccc1OC [CBK042327] | 106.22 |
| CN(c1ncccc1C#N)C1CCN(CCC(N)=O)CC1 [CBK016793] | 49.0043 |
| COc1ccc(-c2n[nH]cc2/C=N/NC(=O)c2cc(Br)ccc2O)c(OC)c1 [CBK262067] | 103.043 |
| CC(=O)N/C(=C/c1ccc([N+](=O)[O-])cc1)C(=O)Nc1cccc(C(=O)O)c1 [CBK264495] | 99.019 |
| Nn1cnn2c(SCC(=O)c3cccs3)nnc12 [CBK263184] | 102.587 |
| COc1c(C)cc(Br)cc1C(=O)Nc1ccccc1-c1nc2ccccc2s1 [CBK267155] | 109.456 |
| Cc1cc(C)c2c(NCc3ccc(C)o3)n[nH]c2n1 [CBK284621] | 72.6123 |
| COc1cncc(-c2ccc(N3CCN(c4ccccc4C#N)CC3)nc2)c1 [CBK037738] | 99.9909 |
| Cc1cc(OCCCC(=O)Nc2cccc([N+](=O)[O-])c2)cc(C)c1Cl [CBK267978] | 108.671 |
| SC1=NC2(CCCC2)NN1c1ccc(Cl)cc1 [CBK288391] | 96.8124 |
| O=c1nc(NS(=O)(=O)c2ccc(Oc3ccccc3)cc2)c(F)c[nH]1 [CBK067571] | 86.0359 |
| NS(=O)(=O)c1ccc(NC2=NC(=O)C(CC(=O)Nc3ccc(Br)cc3)S2)cc1 (stereo not shown) [CBK266616] | 102.111 |
| CC(C)OC(=O)C(NC(=O)OC(C)(C)C)c1ccccc1 (stereo not shown) [CBK170399] | 36.9091 |
